Experimental data from PubChem BioAssay AID588591 (National Center for Advancing Translational Sciences (NCATS), 2011).
In all, about 390,000 compounds went through this assay and about 4,700 (1.2%) were called active. This list was built around the results that the source calls inconclusive (neither active nor inactive); the mix of calls is not that of the screen. The call rests on the fitted dose curve; in most records, active means well fitted inhibition curve with a large enough effect; inconclusive means small, poorly fitted or top-dose-only effect, or another doubt; inactive means no such curve, though single readings can be large or run the other way. Potencies beside an inconclusive call are fits to weak or partial responses and may not hold up.

Each compound was assayed against DNA polymerase eta (Homo sapiens) (UniProt Q9Y253) (assay: qHTS for Inhibitors of Polymerase Eta). Conditions: recombinant Pol eta, fluorescent DNA replication assay; series mostly up to 114 µM; activity change, negative = inhibition: at the top concentration.
Outline: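 Pol eta (10 nM) was preincubated with compounds for 15 min at room temperature, after which fluorescent replication substrate (50 nM final) was added to start the reaction. Fluorescence was read kinetically at 0 and 10 min.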
On the % scale 0 is the no-effect control and ±100 the full control effect; potency means the concentration at half of the fitted maximal effect; tags describe the fitted curve by direction and shape.

UniProt Q9Y253, sequence (Q9Y253 whole entry, looked up): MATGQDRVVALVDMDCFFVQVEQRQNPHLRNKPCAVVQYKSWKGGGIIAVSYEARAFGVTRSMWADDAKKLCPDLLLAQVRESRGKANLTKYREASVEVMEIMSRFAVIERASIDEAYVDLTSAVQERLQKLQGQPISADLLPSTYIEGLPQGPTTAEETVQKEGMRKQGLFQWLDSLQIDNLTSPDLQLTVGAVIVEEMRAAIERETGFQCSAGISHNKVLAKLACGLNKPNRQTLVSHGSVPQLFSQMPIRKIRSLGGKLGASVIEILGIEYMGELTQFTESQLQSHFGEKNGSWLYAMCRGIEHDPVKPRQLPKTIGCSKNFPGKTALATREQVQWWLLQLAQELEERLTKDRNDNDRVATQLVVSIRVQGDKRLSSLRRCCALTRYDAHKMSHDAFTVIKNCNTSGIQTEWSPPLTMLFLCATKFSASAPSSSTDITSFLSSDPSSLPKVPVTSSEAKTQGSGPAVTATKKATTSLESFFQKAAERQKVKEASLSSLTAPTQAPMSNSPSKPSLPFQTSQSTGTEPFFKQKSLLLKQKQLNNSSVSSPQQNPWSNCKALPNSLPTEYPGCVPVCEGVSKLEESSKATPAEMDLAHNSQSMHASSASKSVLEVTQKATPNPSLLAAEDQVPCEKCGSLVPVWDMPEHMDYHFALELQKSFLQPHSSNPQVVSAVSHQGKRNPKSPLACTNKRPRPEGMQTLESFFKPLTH

Structure (SMILES) | Potency | activity change, negative = inhibition
Cc1cc(C)c(NC(=O)CS(=O)CC(=O)NC2CCCc3ccccc32)c(C)c1 (centres undefined) | inconclusive: 39.8 µM [inhibitor, single point] | –
Cc1nc2c3ccccc3nc(NNC(=O)CCC(=O)O)n2n1 | – | inactive: -0.808%
CC(=O)NS(=O)(=O)c1ccc(NC(=O)/C=C/c2cn(-c3ccccc3)nc2-c2ccccc2)cc1 | inconclusive: 39.8 µM [inhibitor, single point] | –
COC(=O)c1ccc(NC(=O)C(C)Sc2nc(=O)cc(N)n2CCc2ccccc2)cc1 (centres undefined) | – | inactive: -10.2%
CN(C[C@H](CC1CCCCC1)N(C[C@H](Cc1ccccc1)N(CCc1ccccc1)N=O)N=O)N=O | – | inactive: -0.276%
O=C1C2C(C(=O)N1/N=C/c1ccc([N+](=O)[O-])o1)C1C=CC2C12CC2 (centres undefined) | inconclusive: 39.8 µM [inhibitor, partial curve, poor fit] | –
Cc1cc2c(C)nc(N/N=C/c3ccc([N+](=O)[O-])cc3)nc2o1 | inconclusive: 10 µM [inhibitor, partial curve] | –
CN(C)c1ccc(CNC(=O)C2CCN(c3nnc(-n4cccc4)s3)CC2)cc1 | inconclusive: 89.1 µM [inhibitor, partial curve, poor fit] | –
COc1ccc(/C=C2/SC(=O)N(CCC(=O)Nc3ccc(S(=O)(=O)Nc4nccs4)cc3)C2=O)cc1 | active: 31.6 µM | –
Cc1cc(-c2ccc(C)c(S(=O)(=O)NCCCN3CCN(c4ccccc4F)CC3)c2)on1 | inconclusive: 56.2 µM [inhibitor, partial curve, poor fit] | –
COc1ccc(-c2cc(C(F)(F)F)n3nc(C(=O)O)cc3n2)cc1OC | inconclusive: 17.8 µM [inhibitor, partial curve, poor fit] | –
COc1cc(/C=N/NC(=O)CSc2nc3ccccc3n2C)cc(OC)c1OC | inconclusive: 39.8 µM [inhibitor, single point] | –
CCOc1ccc(NC(=O)CN(C)C(=O)c2csc3c2CCCC3)cc1OCC | – | inactive: -9.63%
N#Cc1cc2nc(O)c(O)nc2cc1[N+](=O)[O-] | inconclusive: 20 µM [inhibitor, partial curve] | –
O=C(Nc1ccc(Cl)cc1Cl)c1cc(S(=O)(=O)NCc2ccc3c(c2)OCO3)ccc1F | – | inactive: -18.5%
O=C(O)c1ccc(N=Nc2c(O)[nH]c3cc(Cl)ccc23)cc1 | inconclusive: 31.6 µM [inhibitor, partial curve, poor fit] | –
CC1CCc2c(sc(NC(=O)COC(=O)c3ccc(O)cc3)c2C#N)C1 (centres undefined) | inconclusive: 25.1 µM [inhibitor, full curve, poor fit] | –
CCC1=NN2C(=N)/C(=C\c3cccn3-c3cccc(Cl)c3)C(=O)N=C2S1 | active: 31.6 µM | –
CC(=O)Nc1ccc2c(c1)N(S(=O)(=O)c1cccs1)CCC2 | inconclusive: 35.5 µM [inhibitor, partial curve, poor fit] | –
O=C(O)/C=C/c1ccc(S(=O)(=O)Nc2ccccc2C(=O)Nc2ccc(F)cc2)cc1 | inconclusive: 1 µM [inhibitor, partial curve, poor fit] | –
Cc1ccc2scc(N3CCCCC3C)c(=O)c2c1 (centres undefined) | – | inactive: -15.2%
COc1cc2sc(-c3ccccc3OC)c(-c3ccc(O)cc3)c2cc1OC | inconclusive: 79.4 µM [inhibitor, partial curve, poor fit] | –

Structure (SMILES) | Potency | activity change, negative = inhibition
C#CCN1C(=O)S/C(=C/c2cc(C)n(CC)c2C)C1=O | inconclusive: 22.4 µM [inhibitor, partial curve, poor fit] | –
CCN(Cc1ccccc1)c1nc2c(S(=O)(=O)c3ccccc3)nnn2c2ccc(Cl)cc12 | – | inactive: 4.83%
O=C(O)c1cccc(NC(=S)NC(NC(=O)c2cccc([N+](=O)[O-])c2)C(Cl)(Cl)Cl)c1 (centres undefined) | active: 56.2 µM | –
COc1ccc(C2CC(c3ccc(F)cc3)=NN2c2ccccc2)cc1OC (centres undefined) | inconclusive: 112 µM [inhibitor, partial curve, poor fit] | –
CCC(C(=O)NC1CCCCC1)n1c(SCc2ccccc2F)nc2ccncc21 (centres undefined) | inconclusive: 100 µM [inhibitor, partial curve, poor fit] | –
COc1cccc(/C=C(/C#N)c2ccc(F)cc2)c1OCc1cccc(C(=O)O)c1 | inconclusive: 22.4 µM [inhibitor, partial curve] | –
Cc1cc2oc(C(=O)Nc3ccc(S(=O)(=O)Nc4nccs4)cc3)cc(=O)c2cc1Cl | active: 20 µM | –
C=C1C(=O)O[C@@H]2C[C@@H](C)[C@@H]3C=CC(=O)[C@@]3(C)[C@@H](OC(C)=O)[C@H]12 | active: 44.7 µM | –
Cc1c(Cl)cccc1NC(=O)CNc1ccccc1F | – | inactive: -11.6%
CC1CCC(C(C)C)C(OC(=O)COC(=O)c2ccc(N)cc2)C1 (centres undefined) | inconclusive: 89.1 µM [inhibitor, partial curve, poor fit] | –
CCC(C)c1ccc(OCC(=O)Nc2ccc3c(c2)C(=O)NC3=O)cc1 (centres undefined) | – | inactive: -12.6%
CC(C)n1cnc2c(NCc3ccccc3)cc(OCC3CCN(C)CC3)cc21 | inconclusive: 100 µM [inhibitor, partial curve, poor fit] | –
O=C(Nc1ccc(Cl)cc1)c1ccc2c(c1)S(=O)(=O)c1ccccc1C2=O | – | inactive: 0.453%
CC1CCCCC1NC(=O)CNC(=O)c1ccco1 (centres undefined) | inconclusive: 3.98 µM [inhibitor, partial curve, poor fit] | –
C=CCn1c(SCc2cc(=O)n3ccsc3n2)nnc1C1CCCCC1 | active: 79.4 µM | –
COc1ccc(C(=O)/C=C/c2cn(CC(O)CN3CCCCCC3)c3ccccc23)cc1OC (centres undefined) | inconclusive: 79.4 µM [inhibitor, partial curve, poor fit] | –
O=C(NCc1ccccn1)c1ccc(Cl)c(S(=O)(=O)N2CCCCCC2)c1 | inconclusive: 79.4 µM [inhibitor, partial curve, poor fit] | –
Cc1cccc(OCc2nnc(SC(C)C(=O)O)n2-c2ccccc2)c1 (centres undefined) | – | inactive: -2.77%
COc1cccc(N/N=C/c2cccc(Br)c2O)c1 | – | inactive: -9.9%
O=C1COc2ccc(S(=O)(=O)N3CCc4ccccc43)cc2N1 | inconclusive: 89.1 µM [inhibitor, partial curve, poor fit] | –
Cc1ccc(-n2cccc2/C=C2/C(=N)N3C(=NC2=O)SN=C3S(C)(=O)=O)cc1Cl | active: 14.1 µM | –
COc1ccc(/C=N/N=C2/NC(=O)C(CC(=O)O)S2)cc1OCc1ccc(Cl)cc1Cl (centres undefined) | inconclusive: 31.6 µM [inhibitor, single point] | –

Structure (SMILES) | Potency | activity change, negative = inhibition
CCN1/C(=C\c2ccc3ccccc3[n+]2CC)Sc2cc(C)ccc21 | inconclusive: 31.6 µM [inhibitor, partial curve, poor fit] | –
COc1cccc2oc3cc(C#Cc4ccccn4)ccc3c(=O)c12 | inconclusive: 20 µM [inhibitor, full curve] | –
O=C(Nc1cc(Sc2ccccn2)cc([N+](=O)[O-])c1)c1cccc(F)c1 | inconclusive: 44.7 µM [inhibitor, partial curve, poor fit] | –
COCC(C)n1c(C)cc(C(=O)COC(=O)c2nc3nc(C)cc(C)n3n2)c1C (centres undefined) | inconclusive: 0.562 µM [inhibitor, full curve, poor fit] | –
Cc1ccc(CNC(=O)CCCN2C(=S)NC(C)(C)CC2C)cc1 (centres undefined) | inconclusive: 14.1 µM [inhibitor, partial curve, poor fit] | –
Cc1c(C(=O)N2CCCC2)oc2c1-c1nn(CC(=O)NCc3ccc(OC(C)C)cc3)cc1CC2 | – | inactive: -18.6%
O=C(O)C1c2ccccc2Cc2ccccc21 | – | inactive: 4.22%
O=C(O)c1ccc(O)c(N2C(=O)Nc3ccccc3N2O)c1 | inconclusive: 28.2 µM [inhibitor, partial curve] | –
CCOC(=O)c1ccoc1CSCc1ccc(C(=O)OC)o1 | inconclusive: 14.1 µM [inhibitor, full curve, poor fit] | –
O=C(c1ccccc1)N1CN2CN(C(=O)c3ccccc3)CC([N+](=O)[O-])(C2)C1 | inconclusive: 89.1 µM [inhibitor, partial curve, poor fit] | –
CCCC(C)NC(=O)c1ccc(C2SCC(=O)N2Cc2ccco2)cc1 (centres undefined) | inconclusive: 35.5 µM [inhibitor, partial curve, poor fit] | –
CCCC[C@@H]1C[C@H]1[C@@H](NC(=O)c1ccco1)c1ccc(C(=O)OC)cc1 | active: 31.6 µM | –
CC(=O)Nc1cccc(-c2nnc(SCC(=O)n3c4c(c5ccccc53)CCCC4)n2C)c1 | inconclusive: 39.8 µM [inhibitor, single point] | –
Cn1ccnc1C(=O)Cc1ccc([N+](=O)[O-])cc1 | inconclusive: 100 µM [inhibitor, partial curve, poor fit] | –
CC(C)=NOc1cc(NC(=O)CCl)cc([N+](=O)[O-])c1 | inconclusive: 20 µM [inhibitor, partial curve, poor fit] | –
CCOc1ccc(OCCC(=O)OCC(=O)N2CCN(S(=O)(=O)c3ccc(Cl)cc3)CC2)cc1 | inconclusive: 63.1 µM [inhibitor, partial curve, poor fit] | –
Cc1ccc(NS(=O)(=O)c2ccc(N/N=C/c3ccccc3OCC(=O)O)c([N+](=O)[O-])c2)c(C)c1 | active: 70.8 µM | –
S=c1[nH]nc(-c2ccco2)n1/N=C/C(Cl)=C/c1ccccc1 | inconclusive: 89.1 µM [inhibitor, single point] | –
O=Cc1c(C(=O)O)n(CC(=O)O)c2ccccc12 | inconclusive: 25.1 µM [inhibitor, partial curve, poor fit] | –
COc1ccc(CNS(=O)(=O)c2ccc(C(=O)N(C)C)s2)cc1 | – | inactive: 2.17%
